Laboratory results as given in PubChem BioAssay AID624417 (National Center for Advancing Translational Sciences (NCATS), 2012).
About 6,400 (1.6%) of roughly 410,000 compounds were called active. The shares of active, inactive and inconclusive entries below differ from those in the screen. The call rests on the fitted dose curve; in most records, active means well fitted inhibition curve with a large enough effect; inconclusive means small, poorly fitted or top-dose-only effect; inactive means no such curve, though single readings can be large or run the other way. No potency is given beside an inconclusive call; the fits are too rough.

What follows are compounds tested against Glucagon-like peptide 1 receptor (Homo sapiens) (UniProt P43220) (assay: qHTS of GLP-1 Receptor Inverse Agonists (Inhibition Mode)). Conditions: HEK293 GLP-1R CRE-luciferase, luminescence, 24 h, GLP-1R form is constitutively active; series mostly up to 38.3 µM.
In short: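 Inverse agonists were sought by their lowering of basal cAMP reporter luciferase output in HEK293 cells stably carrying constitutively active human GLP-1R, after 24 h compound treatment.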
Further: nearly all actives have a fitted effect of over 55% in size.
Potency means the concentration at half of the fitted maximal effect; tags describe the fitted curve by direction and shape.

Chain of UniProt P43220 (P43220 whole entry, looked up): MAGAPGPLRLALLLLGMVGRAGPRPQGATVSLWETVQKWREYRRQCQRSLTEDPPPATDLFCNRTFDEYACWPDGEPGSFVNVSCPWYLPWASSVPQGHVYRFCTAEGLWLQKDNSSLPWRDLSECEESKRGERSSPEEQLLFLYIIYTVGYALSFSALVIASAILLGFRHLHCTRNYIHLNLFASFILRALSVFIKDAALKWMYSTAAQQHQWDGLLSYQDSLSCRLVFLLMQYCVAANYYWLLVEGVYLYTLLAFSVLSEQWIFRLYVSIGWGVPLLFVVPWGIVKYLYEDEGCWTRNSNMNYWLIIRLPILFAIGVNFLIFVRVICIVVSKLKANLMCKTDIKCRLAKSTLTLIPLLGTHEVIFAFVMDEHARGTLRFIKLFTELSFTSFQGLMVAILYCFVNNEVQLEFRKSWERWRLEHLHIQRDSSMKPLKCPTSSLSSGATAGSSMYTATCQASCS

SMILES	Potency
O=C(Nc1ccc(F)cc1F)C1CCN(C(=O)c2cnn(-c3ccccc3)c2-n2cccc2)CC1	inconclusive [inhibitor, full curve, poor fit]
O=C(NCC(c1ccc2c(c1)OCO2)N1CCN(c2ccccc2)CC1)c1ccc(F)c(F)c1 (stereo not given)	inconclusive [inhibitor, single point]
COc1ccc(-c2csc(Nc3ccc(S(=O)(=O)Nc4cc(C)on4)cc3)n2)cc1C	inconclusive [inhibitor, single point]
CCN1CCCC1CNC(=O)c1ccc2c(c1)NC(=O)/C(=C\c1ccccc1F)S2 (stereo not given)	active: 11.2 µM
COC(=O)c1c(NC(C)=O)sc2c1CCCC2	inactive
Clc1cccc(Nc2nc(-c3cccnc3)cs2)c1	inconclusive [inhibitor, full curve, poor fit]
C=CCC(CC=C)(CNC(=O)C(=O)Nc1ccc(Br)cc1)c1ccc(OC)c(OC)c1	inactive
COc1ccc(OC)c(NC(=S)NCc2ccccc2OC)c1	inconclusive [inhibitor, partial curve, poor fit]
CCCc1nnc(SCc2cc(=O)c3c(C)cc(C)cc3[nH]2)n1C	inactive
Cc1onc(-c2ccccc2Cl)c1C(=O)OCc1nnc(-c2ccccc2)o1	inconclusive [inhibitor, single point]
O=C(NCCN1CCOCC1)c1ccc2c(c1)N(Cc1ccccc1)CCS2	inconclusive [inhibitor, single point]
CCOC(=O)/C(=N\Nc1cc(C(F)(F)F)ccc1Cl)N(CC)CC	inactive
COc1ccc(C(O)c2nc(-c3ccccc3C)cs2)cc1 (stereo not given)	inactive
Cc1ccc(C)c(N2CCN(C(=O)c3c(C)oc4nc(C)nc(N5CCOCC5)c34)CC2)c1	inactive
CC(=O)Nc1ccc(NCc2cccs2)cc1	inactive
CC1(C(=O)NS(=O)(=O)c2ccc(Cl)s2)CCN1C(=O)C1(c2ccc(Cl)cc2)CCC1 (stereo not given)	inconclusive [inhibitor, single point]
S=C(NCc1cccs1)Nc1ccc(Br)cc1Cl	inconclusive [inhibitor, single point]
Cc1ccc(-n2nnnc2SCC(=O)NCCc2ccccc2)cc1C	inconclusive [inhibitor, single point]
COc1ccccc1C1CCN(C(=O)C2CCCCC2)CC1	inconclusive [inhibitor, partial curve, poor fit]
COc1ccc(NC(=O)c2ccc(NC(=O)CCS(=O)(=O)c3cccs3)cc2)cc1Cl	inconclusive [inhibitor, partial curve, poor fit]
COc1ccc(NC2CCCN(C(=O)COc3ccc(Cl)cc3C)C2)cc1OC (stereo not given)	inconclusive [inhibitor, single point]
O=C(CCCN1CCC(NC(=O)c2ccccc2)CC1)c1ccc(Cl)cc1	inactive
O=[N+]([O-])c1ccccc1CNC1CCCc2ccccc21 (stereo not given)	inconclusive [inhibitor, single point]

SMILES	Potency
Cc1cccc(-c2nc(Nc3ccc(O)cc3)c3ccccc3n2)c1	active: 2.82 µM
CC(Sc1nccn1C)C(=O)Nc1ccccc1 (stereo not given)	inactive
O=C(Nc1ccccc1)c1cc(C2CCCN(C(=O)CCc3ccccc3)C2)on1 (stereo not given)	inconclusive [inhibitor, single point]
CCOc1ccccc1NC(=O)Cn1c(=O)n(-c2ccc(C)cc2)c(=O)c2c1cnn2C	inactive
C/C(=N\O)C(C)(C)Nc1ccc(Br)cc1	inconclusive [inhibitor, single point]
CC1(C)CC(=O)c2c(nc(SCC(=O)Nc3nsc(-c4ccccc4)n3)c(C#N)c2-c2ccccc2)C1	inconclusive [inhibitor, full curve, poor fit]
O=C(c1ccccc1)N(c1ccccc1)c1ccccc1O	inconclusive [inhibitor, single point]
O=[N+]([O-])c1ccc(/C=N/Nc2nc(N3CCCCC3)nc(N3CCCCC3)n2)o1	inconclusive [inhibitor, partial curve, poor fit]
O=C(Nc1nc2cc(Cl)ccc2s1)C1CCCN(S(=O)(=O)c2cccc3cccnc23)C1 (stereo not given)	inconclusive [inhibitor, partial curve, poor fit]
COc1ccc(OCC(=O)NCc2ccc3c(c2)CCN3C(=O)c2cccc(C)c2)cc1	inconclusive [inhibitor, partial curve, poor fit]
CC(NC(=O)COc1ccc(-c2ccccc2)cc1)C1CCCO1 (stereo not given)	inconclusive [inhibitor, partial curve, poor fit]
COc1ccc(C)cc1S(=O)(=O)N1CCCC(C(=O)N2CCN(c3ccccc3)CC2)C1 (stereo not given)	inconclusive [inhibitor, single point]
O=C(NC1CCCC1)c1cc2nc(-c3ccco3)cc(C(F)(F)F)n2n1	inactive
Cc1ccccc1-c1nc(CS(=O)(=O)CC(=O)N2CCCCC2)c(C)o1	inconclusive [inhibitor, single point]
COC(=O)c1ccc(C(=O)OC)c(NC(=O)CSCc2ccc(Br)cc2)c1	active: 7.94 µM
COc1cc(C)c(C(C)C)cc1S(=O)(=O)n1cnc(C)c1	inconclusive [inhibitor, full curve, poor fit]
COC(=O)c1ccc(NC(=O)CC2C(=O)N(c3ccccc3)C(=O)N2Cc2cccs2)cc1 (stereo not given)	inactive
Cc1cccc(C)c1-n1c(C)cc(/C=C2\C(=O)NN(c3ccccc3)C2=O)c1C	inactive
Cc1cccc(N2CCN(c3nc4ccccc4c4nnc(C)n34)CC2)c1C	inactive
O=C(NC(=S)N1CCCCCC1)c1ccccc1Cl	inconclusive [inhibitor, single point]
CN1CCN(c2ccccc2NC(=O)c2cccc([N+](=O)[O-])c2)CC1	inactive
CSCCC(C(=O)N1CC2(C)CC1CC(C)(C)C2)N1C(=O)c2ccccc2C1=O (stereo not given)	inconclusive [inhibitor, single point]
